# According to the supplement of paper PMC12632987:
# Over roughly 4,500 sequences, “median log2 fold change of GCK-ALFA target abundance (FLAG IP / Myc IP barcode read proportion)” has its median near 0.078; the lowest 2% begin near -0.6. This is one part of the list.
# B1: GBRAP_83_6887 (protein)
# chain: AEEITVGATADHVEAAVEAAVDLAKEEGYKVVLDLAVTPESVPRLKAALEKVAAAGVKLELRVTVVAPTEEEARATAAEIRAHAEETGAASRLEVETEVV
# B2: GBRAP_160_4805 (protein)
# chain: SEKVEKLLKEARKDLLDTAEASKDLPIEDQAKLLEAEGYTNILDFREELGISDETEDKLAEIVDEMVATLRANPDLTPEEVLALVEEAAKKMEEIVKKEA
# B3: GBRAP_184_5102 (protein)
# chain: KTLVVEVEAETKEEAIAQIKKALDEAAAQGASLIVLLKLKNVSEEEIVEVIRTVGEYAKEKGIPSLTIGIENELDEETIDKAVEVADELGIKLVVVYPDE
# B4: GBRAP_184_5078 (protein)
# chain: KTLERLIEAETKEELLKKVDEVIKEAAAQKANLNVYIDMPGLTTEIALEIIDRLGKAKKAGKVPKVTVGFDEEFSEEEIDILVKKADEQGINVVLPIKDE
# B5: GBRAP_184_5300 (protein)
# chain: TVVNVFIEAETAEEAIKKIEAEAAKARAAGVKLSIYLSLKNVSVEGFKKIMEKLKALKDEGIIESATVEIEDDKSEEEIDEFIKLADEAGVKLVVALPDE
# B6: GBRAP_166_4906 (protein)
# chain: MKEEKIEELIERAEELIEELKEADEEEALELLIEIGEVLRELKELGASEEEILELVRRTLEAVKERGLSVRVAAGIIAEVADFDEEMREKLDEIAREVEA
# B7: GBRAP_11_2890 (protein)
# chain: KKEKLEEAAELARELVELLEELLEEGVDNEELQEEALETAERLLELAKKHLDKALQKDVEILLELVKEMLEDPERREEYAREALAAARVLEGDLLLELEE
# B8: GBRAP_184_5155 (protein)
# chain: KVLEEVIEAENLEELKEKLEEIEKKAKEEKADLIIYLDVEELTKEMVDLLAERIKEIKDAGYVKSITVGVDAELTEEMVDYVLEKFDEAGAKVAVALDEE
# B9: GBRAP_166_4952 (protein)
# chain: SMEEIKEEARKRIEELAKKMKEEDAEGQLELQAEIAETLAEAKEAGLSEEELLELVRLALKLVKEAGGDVDAFVGALNIFVDLSEEEIEKVEELREEVKK
# B10: GBRAP_160_4085 (protein)
# chain: SEEFEKLIKEVKDIFDEAIEMMKDVSKEEAVNIALVALGEVALLIEEAEELSEEAKEELLKLIDEGEKEIKANKDKSVEELIKLLKEFEEKIIEAIKKAA
# B11: GBRAP_160_4277 (protein)
# chain: SEELKELAKELEEDKEEILKLVDEISPEELKTFAVTEMGSHLLEAIELEGITEEQEEELAKIIDQLEKDLTAAKNASPEELKKIITEHYDKMIEILLKAK
# B12: GBRAP_74_6504 (protein)
# chain: SAEVKALIAELEAAAAEGASVEELEALAERVIALGDQEAAGALVKAIAAAMERAGREERRRLAEIFERLIHETDIDFSTPETGDAVKRAATLALELEKEE
# B13: GBRAP_35_5603 (protein)
# chain: ETDEEVVEWVADTVEDLVLAADDMDDETFAATAITIARATKEVIEKEKTDLEGLKRLAEELKRLLEALEKRGLDTPLMREAAAAVREALKAAEAAIKEAE
# B14: GBRAP_137_3616 (protein)
# chain: KKVTITFSEEDGTAYAEIKADKSVDQEKLEKLIEEVAEEHGVKLVKALSEDPNDIEYYLVGDPEKIVAAVKSLIKRLKEELGAEVVLESDGAEELVEKVK
# B15: GBRAP_11_2919 (protein)
# chain: KKEEKEKMAKLAEEAAELVEELIEEGVDNKELQKELEKKLKELEELVKKYGDEADKKDVEIAKELWKEAQADPENRLEYLKQLRAALRVLAGRYLLELEE
# B16: GBRAP_128_3238 (protein)
# chain: PDPAVEAEADALIETIVTGTPEEAAAATAALVALMATVDLETAERFAERLKAALEKLTAEKLDVVADALRANRGRLDPEKATLAADVEIEALNLAEEKEE
# B17: GBRAP_35_5548 (protein)
# chain: DSDEETAEMLVDTIEDIVEALPDVSEEDRVALAEAALRLARDLVELQPKNKELIKRAIEALERIKEIIEESDLPEEVRERLVREIEELIEELKKILEENE
# B18: GBRAP_52_5920 (protein)
# chain: SSEKAKKIAEEILEAALAGKEEELKKLIEELVKNYSLEEIKEVIRELARIIAELGPEHYDLFAEIMDLLLDAAEKAGRDVEEVDAAIAEAAGLLYQAEQA
# B19: GBRAP_83_6981 (protein)
# chain: AEHIVVAGNSDNIEEAAEIAIDLHEEEGYEVDIELIIKKEDKEKLLKELKKVFEKGVETDILILGEGMTEEEAEELEKELKEIAKEYGVNVNIEVELLPP
# B20: GBRAP_83_6950 (protein)
# chain: KEKLVVAANGDHVEEAVKIAADLAKTGKYEVTLEVITDVESAKVLIEEVGKALKAGVKFELEVLLEGATEEEAEEVLKEFKKVAKEAGADIPVEVHVLEP
# B21: GBRAP_57_6449 (protein)
# chain: EERLKKIREAAKKTIELLKSKAPDEEIRKAISEFMDLLSDEVVDLVAAYLDPEAAEGLDREELKKLAVEKLLEVAKTKGPEEAIKIIETALAQEELLAEE
# B22: GBRAP_80_6852 (protein)
# chain: AEAALAAALAALAAVLPEAAETAKRIVELALELGVPKEVITDTLNALTELAKVDPELAKELLKELLADLEELAAEGDSEGATAVLRGYAGEALLEAEELE
# B23: GBRAP_160_4033 (protein)
# chain: SEKYEKLKEFAKEEFKEAKEMVEGQTAEQRAAIVDTAAGRIIMEAEELGIDDDELLDKIDKLADEAVAYILANPDLTEEEVKKLIEKMEKEVLEAIEKAE
# B24: GBRAP_39_5708 (protein)
# chain: DEKEELELLASYYEAVAAKEQVDSGISLEEFLAKKREEIKKAAEEDPENKAVYERLLKLMDEGDDVDKLIAAGIAKALKAGMPVEEAEAILKQVEEERKK
# B25: GBRAP_128_3222 (protein)
# chain: MAEEAEKKVRELLEKIKKADEEERKKLAKELAELVASQDVETAEAMRKVIEELAPELSEEDLEILMDAFEEAARATDDEISLVLTEAAIIMGQRILELEE
# B26: GBRAP_128_3174 (protein)
# chain: SIEEVREYTRKKMEEIKNSSPEEARKIATELFTWLLTLSLEEAEAAVEVILEELPKLSAEKLQIIADVAREYRPKASPEKAELIAEVEVEALNLELELEE
# B27: GBRAP_139_3740 (protein)
# chain: MPAEEIVAEAAAKARELKDDPDALADYLVERIKAVDEETAAAIVAAAMEALADLPVDKILEIVDKVLERLEEAGVSEDKRDAAEAELNGGLARHAAAEEA
# B28: GBRAP_184_5200 (protein)
# chain: KVLEVEVTVENLEETKEKMEEILKKAKEEKADLLLIVKLKKSTKEIIETIMEALGKIKKEGYAKNVTVELEGDLSDENIDLAFELADKAGVNLVIALPES
# B29: GBRAP_128_3564 (protein)
# chain: STEALVARARALLAAIKAAGPEEARALARELADLIAAADPAAREAIVETILELLPELTPEQLDILADVFRERRATADPATAEALAEIEVEALNEREEKEE
# Target: GABARAP, O95166
# Sequence (O95166 whole entry, the tested form may be a part): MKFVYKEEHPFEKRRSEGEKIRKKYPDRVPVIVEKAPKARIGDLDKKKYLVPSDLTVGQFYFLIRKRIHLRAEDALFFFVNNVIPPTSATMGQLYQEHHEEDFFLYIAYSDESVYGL
# Experiment: median log2 fold change of GCK-ALFA target abundance (FLAG IP / Myc IP barcode read proportion) (log2 ratio); each designed protein is fused to an ALFA-tag nanobody in HEK293 cells to bring the named protein to FLAG-tagged glucokinase (GCK); Myc marks an untargeted standard; higher = target protein stabilised (more abundant)
# Conditions: target protein: 3xFLAG-MCP-GCK-ALFA reporter; HEK293 landing pad (RPLP)
# In short: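 Binders fused to an ALFA nanobody were recombined as a library into HEK293 landing-pad cells, which were induced with 2 μg mL^−1 doxycycline and then transfected to express a FLAG-tagged target and a Myc-tagged standard. After 48 h, circular RNA barcodes recovered by anti-FLAG and anti-Myc immunoprecipitation of lysates were reverse transcribed, amplified and sequenced. Each binder's target abundance is the median log2 ratio of FLAG to Myc barcode read proportions, from barcodes present at ≥10^−7 in both replicates, binders carrying ≥3 barcodes per replicate, a 10^−6 pseudocount and pooled replicates.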
row,Binder,median log2 fold change
1,B1,0.0106
2,B2,-0.0905
3,B3,-0.0725
4,B4,0.165
5,B5,-0.00309
6,B6,-0.128
7,B7,0.0648
8,B8,-0.14
9,B9,0.296
10,B10,0.157
11,B11,0.157
12,B12,0.146
13,B13,0.253
14,B14,-0.197
15,B15,0.396
16,B16,0.255
17,B17,-0.485
18,B18,0.0721
19,B19,0.0819
20,B20,-0.0309
21,B21,0.302
22,B22,-0.0831
23,B23,-0.0731
24,B24,0.309
25,B25,0.00949
26,B26,0.161
27,B27,0.166
28,B28,0.142
29,B29,0.19
